# Results reported in the supplement of paper PMC9174493.
# The list shows a part of the results. Single values of this set are uncertain. Values with irradiation are relative to irradiated vehicle.
# Tests used:
# A549-Dual [1] = experiment: NF-kB reporter (SEAP) activity, viability-corrected, relative to vehicle (fold change vs vehicle); higher = more activation of STING-IRF / NF-kB immune response reporter; details: 10 µM
# A549-Dual [2] = experiment: ISRE reporter (Lucia luciferase) activity, viability-corrected, relative to vehicle (fold change vs vehicle); higher = more activation of STING-IRF / NF-kB immune response reporter; details: 10 µM
# 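For NF-kB reporter (SEAP) activity, viability-corrected, relative to vehicle in this document: viability correction based on the alamar blue assay, with concentrations leaving 10% survival or less dropped.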
SMILES,NF-kB reporter (A549-Dual [1]; irradiation: 8 Gy/4 fr),NF-kB reporter (A549-Dual [1]; irradiation: none),ISRE reporter (A549-Dual [2]; irradiation: 8 Gy/4 fr),ISRE reporter (A549-Dual [2]; irradiation: none)
COc1ccc2c3c([nH]c2c1)C(C)=NCC3 [Harmaline],0.721,1.13,0.458,0.643
CN(C)C(=O)Oc1cccc([N+](C)(C)C)c1.[Br-] [Neostigmine Bromide],0.553,0.648,0.563,0.812
CCCC[N+]1(C)C2CC(OC(=O)C(CO)c3ccccc3)CC1C1OC12.[Br-] (stereo not drawn) [Butylscopolamine Bromide],0.607,1.28,0.544,0.858
NC(=O)CN1CC(c2ccccc2)CC1=O (stereo not drawn) [Phenylpiracetam],0.708,0.787,0.691,0.785
O=Cc1ccco1 [Furfural],1.11,0.645,0.875,0.522
COc1ccc(OC)c(C(O)C(C)N)c1.Cl (stereo not drawn) [Methoxamine HCl],0.539,0.611,0.429,0.529
Nc1ccncc1 [4-Aminopyridine],0.821,0.975,0.805,0.755
CCOC1OC2OC3(C)CCC4C(C)CCC(C1C)C24OO3 (stereo not drawn) [Arteether],0.881,1.18,1.2,3.07
C=CC1CN2CCC1CC2C(O)c1ccnc2ccccc12 (stereo not drawn),0.857,0.509,0.862,0.579
CCC1(C)CC(=O)NC(=O)C1 [Bemegride],1.06,1.19,1.04,0.803
C[N+]1(C)C2CC(OC(=O)C(CO)c3ccccc3)CC1C1OC12.[Br-] (stereo not drawn) [Methscopolamine],0.74,0.845,0.67,0.675
CN1c2ccccc2C(NCCCCCCC(=O)O)c2ccc(Cl)cc2S1(=O)=O (stereo not drawn) [Tianeptine],0.775,0.99,0.832,0.879
C#CC1(OC(=O)CCCCCC)CCC2C3CCC4=CC(=O)CCC4C3CCC21C (stereo not drawn) [Norethisterone Enanthate],0.332,0.714,0.0463,0.111
Nc1nc(N)nc(NC2CC2)n1 [Cyromazine],0.892,1.02,0.79,0.838
CCC(C)(C)C1C(=O)N2CCCC2C2(O)OC(NC(=O)C3CC4c5cccc6[nH]cc(c56)CC4N(C)C3)(C(C)C)C(=O)N12 (stereo not drawn) [Ergoloid Mesylates],0.814,1.53,0.652,3.04
CN[C@@H]1[C@@H](O)[C@@H](O[C@@H]2[C@@H](O)[C@H](O[C@H]3O[C@H](CN)CC[C@H]3N)[C@@H](N)C[C@H]2N)OC[C@]1(C)O.CN[C@@H]1[C@@H](O)[C@@H](O[C@@H]2[C@@H](O)[C@H](O[C@H]3O[C@H]([C@@H](C)N)CC[C@H]3N)[C@@H](N)C[C@H]2N)OC[C@]1(C)O.CN[C@@H]1[C@@H](O)[C@@H](O[C@@H]2[C@@H](O)[C@H](O[C@H]3O[C@H]([C@@H](C)NC)CC[C@H]3N)[C@@H](N)C[C@H]2N)OC[C@]1(C)O [Gentamicin Sulfate],1.01,1.42,0.917,1.47
CCC1CN2CCC1CC2C(O)c1ccnc2ccc(OC)cc12 (stereo not drawn) [Hydroquinine],1.25,0.927,1.35,0.864
CC(=O)OC1CCC2C3CCC4=CC(=O)CCC4=C3C=CC12C (stereo not drawn) [Trenbolone acetate],0.469,0.576,0.484,0.451
O=[N+]([O-])C(Br)(CO)CO [Bronopol],1.01,0.972,0.781,0.753
C=CC12CN(C)C3C4COC(CC41)C1(C(=O)Nc4ccccc41)C32 (stereo not drawn) [Gelsemine],1.17,0.725,1.33,0.911
CC(=O)OC1CC2CCC3C(CCC4(C)C3CC([N+]3(C)CCCCC3)C4OC(C)=O)C2(C)CC1[N+]1(C)CCCCC1.[Br-].[Br-] (stereo not drawn) [Pancuronium dibromide],0.847,1.25,0.692,0.659
Cc1ccc(N=CN(C)C=Nc2ccc(C)cc2C)c(C)c1 [Amitraz],0.98,1.08,1.01,0.993
CCC(C(N)=O)N1CCCC1=O (stereo not drawn) [Levetiracetam],0.709,0.853,0.752,0.863
Br.CN1C2CC(OC(=O)C(CO)c3ccccc3)CC1C(O)C2 (stereo not drawn) [Anisodamine Hydrobromide],0.748,0.764,0.686,0.646
C=C(C)C1C2OC(=O)C1C1(O)CC3OC34C(=O)OC2C14C (stereo not drawn) [Picrotoxinin],0.747,0.446,0.65,0.434
CCN(C)C(=O)Oc1cccc(C(C)N(C)C)c1 (stereo not drawn) [Rivastigmine],0.754,1.47,0.706,0.725

SMILES,NF-kB reporter (A549-Dual [1]; irradiation: 8 Gy/4 fr),NF-kB reporter (A549-Dual [1]; irradiation: none),ISRE reporter (A549-Dual [2]; irradiation: 8 Gy/4 fr),ISRE reporter (A549-Dual [2]; irradiation: none)
CC(C)(C)NCC(O)c1ccccc1Cl.Cl (stereo not drawn) [Tulobuterol hydrochloride],1.12,0.872,1.12,0.788
CCCCOC(=O)c1ccccc1C(=O)OCCCC [Dibutyl phthalate],0.78,0.856,0.687,0.643
C=CCC(C(=O)NC(N)=O)C(C)C (stereo not drawn) [Apronal],0.865,1.7,0.625,0.835
Cl.NCCc1c[nH]c2ccc(O)cc12 [Serotonin HCl],0.894,1.21,0.871,0.886
CC12CCC3C(CCC4CC(O)CCC43C)C1CCC2=O (stereo not drawn) [Epiandrosterone],0.985,0.818,0.835,0.617
COc1ccc2c(c1)[nH]c1c(C)nccc12 [Harmine],1.2,1.51,0.619,1.71
CC[n+]1c(-c2ccccc2)c2cc(N)ccc2c2ccc(N)cc21.[Br-] [Ethidium bromide],2.34,3.25,0.113,0.353
CN1C2CC(OC(=O)C(CO)c3ccccc3)CC1C1OC12 (stereo not drawn) [Scopolamine],0.965,1.15,0.785,0.597
C=CCN1CCC23c4c5ccc(O)c4OC2C(=O)CCC3(O)C1C5.Cl (stereo not drawn) [Naloxone HCl],0.756,0.911,0.742,0.564
Cc1cccc(C(C)c2cnc[nH]2)c1C (stereo not drawn) [Dexmedetomidine],0.942,1.28,0.871,0.886
Cl.NCC1(CC(=O)O)CCCCC1 [Gabapentin HCl],0.812,1.79,0.622,0.864
C=C1CCC2C(/C=C(\C)C(=O)C3(O)CC(C)C(O)C3C1O)C2(C)C (stereo not drawn) [Lathyrol],0.46,0.949,0.0833,0.368
CN(C)Cc1c[nH]c2ccccc12 [Gramine],0.643,0.507,0.642,0.515
N#C[S][Na] [Sodium Thiocyanate],0.997,0.753,0.929,0.647
CC[N+](C)(CC)CCOC(=O)C(O)(c1ccccc1)c1ccccc1.[Br-] [Methylbenactyzine Bromide],0.596,0.781,0.558,0.646
COC(=O)c1ccccc1C(=O)OC [Dimethyl phthalate],0.844,1.17,0.75,0.982
CCC1CN2CCC1CC2C(O)c1ccnc2ccc(OC)cc12 (stereo not drawn) [Hydroquinidine],0.712,1.16,0.733,0.839
COc1c(C)c(O)cc2[o+]c(-c3ccccc3)ccc12.[O-][Cl+3]([O-])([O-])[O-] [Dracohodin perochlorate],0.494,0.689,0.171,0.234
CCC1(c2ccc(N)cc2)CCC(=O)NC1=O (stereo not drawn) [Aminoglutethimide],0.881,0.853,0.95,0.843
COc1ccc(CN2CCNCC2)c(OC)c1OC [Trimetazidine],0.797,0.823,0.704,0.775
C#CC1(O)CCC2C3CCC4=CC(=O)CCC4(C)C3CCC21C (stereo not drawn) [Ethisterone],0.716,0.587,0.652,0.441
CNCC(O)c1ccc(O)cc1.Cl (stereo not drawn) [Synephrine HCl],0.702,0.924,0.724,0.992
Cc1cc(O)ccc1Cl [Chlorocresol],0.802,0.603,0.69,0.563
CC(=O)OC1CCC2(C)C(=CCC3C4CCC(=O)C4(C)CCC32)C1 (stereo not drawn) [Dehydroepiandrosterone acetate],0.992,0.713,1.09,0.671
COc1cc2c3c(c1OC)-c1ccccc1CC3N(C)CC2 (stereo not drawn) [Nuciferine],0.766,0.929,0.702,0.471
C=CC1CN2CCC1CC2C(O)c1ccnc2ccccc12 (stereo not drawn) [Cinchonidine],0.869,0.537,0.961,0.756
